# The supplement of paper PMC9446081
# In all, about 39,000 compounds went through this assay and about 220 (0.56%) showed activity. Some of the results follow.
# Test system: Escherichia coli K-12 BW25113
# Assay: relative growth (OD600 normalised to plate interquartile mean) (fraction); higher = less growth inhibition, active = 0.2 or less
# Conditions: 50 µM; LB; incubation time: overnight (16-24 h)
# 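Note: static incubation at 37 °C against the wild-type strain, values averaged over two biological replicates.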
row,Compound,relative growth
1,Cc1noc(C)c1S(=O)(=O)Nc1ccc2c(c1)C(=O)N([C@@H](C)CO)C[C@@H](C)[C@H](CN(C)C(=O)Nc1ccccc1)O2,inactive: 0.997
2,COc1cccc(S(=O)(=O)N2C[C@H](O)COC[C@H]3O[C@H](CC(=O)N4CCOCC4)CC[C@@H]32)c1,inactive: 0.99
3,COc1ccc(S(=O)(=O)N(C)C[C@@H]2Oc3ccc(NC(=O)Nc4cc(Cl)cc(Cl)c4)cc3CC(=O)N([C@@H](C)CO)C[C@@H]2C)cc1Cl,inactive: 1.02
4,CO[C@@H]1CN(C)C(=O)c2cc(NS(=O)(=O)CC(F)(F)F)ccc2OC[C@@H](C)N(C(=O)c2ccc3c(c2)OCO3)C[C@@H]1C,inactive: 0.968
5,COc1ccc(C#Cc2ccc3c(c2)O[C@H](CN(C)C(C)=O)[C@@H](C)CN([C@H](C)CO)S3(=O)=O)cc1,inactive: 1
6,Clc1ccc(-c2cc[nH]n2)cc1,inactive: 0.912
7,COc1cccc(C#Cc2ccc3c(c2)O[C@H](CN(C)C(C)=O)[C@H](C)CN([C@@H](C)CO)S3(=O)=O)c1,inactive: 1.01
8,COc1ccc(C#Cc2cnc3c(c2)C(=O)N([C@H](C)CO)C[C@H](C)[C@H](CN(C)S(=O)(=O)c2cccc(F)c2)O3)cc1OC,inactive: 1.03
9,C[C@@H]1CCCCO[C@H](CN(C)CC2CCCCC2)[C@@H](C)CN([C@H](C)CO)C(=O)c2cc(NC(=O)Nc3ccc4c(c3)OCO4)ccc2O1,inactive: 0.996
10,O=C(C[C@@H]1CC[C@@H]2[C@H](COC[C@H](O)CN2S(=O)(=O)c2ccc(Cl)cc2)O1)N[C@H]1CCN(Cc2ccccc2)C1,inactive: 0.987
11,C[C@H](CO)N1C[C@H](C)[C@@H](CN(C)Cc2ccc(-c3ccccc3)cc2)Oc2ccc(NC(=O)Nc3ccc4c(c3)OCO4)cc2C1=O,inactive: 1.02
12,Cc1ccc(S(=O)(=O)N(C)C[C@@H]2Oc3ncc(-c4ccncc4)cc3C(=O)N([C@@H](C)CO)C[C@@H]2C)cc1,inactive: 0.912
13,Cc1noc(C)c1NC(=O)Nc1ccc2c(c1)C(=O)N([C@@H](C)CO)C[C@@H](C)[C@H](CN(C)CC1CCCCC1)OCCCC[C@H](C)O2,inactive: 1.02
14,C[C@@H]1CN([C@H](C)CO)C(=O)Cc2cc(NC(=O)CCCCCC(=O)Nc3ccccc3N)ccc2O[C@@H]1CN(C)Cc1ccc(C(F)(F)F)cc1,inactive: 1.06
15,C[C@H]1CCCCO[C@H](CN(C)C(=O)Cc2ccccc2)[C@@H](C)CN([C@@H](C)CO)C(=O)c2cc(NS(=O)(=O)c3ccc(Cl)cc3)ccc2O1,inactive: 1.02
16,COc1ccc(C(=O)Nc2cccc(CN3C(=O)[C@@]4(O[C@@H](CC(=O)N5Cc6ccccc6C[C@H]5CO)[C@H]([Si](C)(C)c5ccc(OC)cc5)[C@H]4C)c4ccccc43)c2)cc1,inactive: 1.02
17,C[C@H]1CN([C@@H](C)CO)C(=O)c2cc(NC(=O)NC3CCCCC3)ccc2O[C@@H]1CN(C)C(=O)Nc1ccc(C(F)(F)F)cc1,inactive: 1.02
18,C[C@@H]1CCCCO[C@H](CN(C)C(=O)CCC(F)(F)F)[C@H](C)CN([C@@H](C)CO)C(=O)c2cc(NS(=O)(=O)c3ccc(Cl)cc3)ccc2O1,inactive: 0.99
19,C=CCN1C(=O)[C@]2(O[C@H](CCO)[C@@H]([Si](C)(C)c3ccc(OC)cc3)[C@@H]2C)c2cc(N(C=O)c3ccccc3)ccc21,inactive: 1.03

row,Compound,relative growth
1,C[C@@H]1CN([C@@H](C)CO)C(=O)Cc2cc(NC(=O)Nc3ccc4c(c3)OCO4)ccc2O[C@H]1CN(C)Cc1ccc(C(F)(F)F)cc1,inactive: 1.03
2,CS(=O)(=O)Nc1ccc2c(c1)[C@@H]1C[C@H](CC(=O)NCC3CC3)O[C@@H](CO)[C@@H]1O2,inactive: 0.992
3,COCCN1C[C@H]2CN(Cc3nccn3C)C[C@H]2C1=O,inactive: 0.911
4,C[C@@H]1CCCCO[C@@H](CN(C)C(=O)Nc2ccc3c(c2)OCO3)[C@@H](C)CN([C@@H](C)CO)C(=O)c2cc(NC(=O)Nc3ccc4c(c3)OCO4)ccc2O1,inactive: 1.03
5,O=C(N/N=C/[C@@H](O)[C@H](O)[C@H](O)CO)c1ccccn1,inactive: 0.97
6,COCC(=O)Nc1ccc2c(c1)[C@@H]1C[C@H](CC(=O)N3CCOCC3)O[C@H](CO)[C@@H]1O2,inactive: 1.01
7,CN1CCN(C(=O)C[C@H]2C=C[C@H](NC(=O)Cc3ccccn3)[C@H](CO)O2)CC1,inactive: 1.03
8,CC(C)CC#Cc1ccc2c(c1)O[C@H](CN(C)S(=O)(=O)c1cccc(F)c1)[C@H](C)CN([C@H](C)CO)S2(=O)=O,inactive: 1.04
9,C[N+](C)(C)CCCCNC(=O)[C@@H]1C[C@@H]2C(=O)N3CCC[C@H]3C(=O)N2[C@@H]1c1cccc(OCCO)c1,inactive: 0.988
10,NCCNCCNCCNCCN,inactive: 0.962
11,Cc1ccc(S(=O)(=O)Nc2ccc3c(c2)C(=O)N([C@@H](C)CO)C[C@H](C)[C@H](CN(C)C(=O)C2CCCCC2)OCCCC[C@@H](C)O3)cc1,inactive: 0.94
12,O=S(=O)([O-])CCCS(=O)(=O)[O-].[Na+].[Na+],inactive: 1.05
13,COc1ccc(CN(C)C[C@H]2OCCCC[C@@H](C)Oc3ccc(NC(=O)C4CCCCC4)cc3C(=O)N([C@@H](C)CO)C[C@@H]2C)cc1,inactive: 0.989
14,C[C@@H](Oc1cc(-n2cnc3ccc(CN4CCN(C)CC4)cc32)sc1C(N)=O)c1ccccc1C(F)(F)F,inactive: 0.979
15,O=C(NO)c1cccc(C(=O)N/N=C/[C@H](O)[C@@H](O)[C@H](O)[C@H](O)CO)c1,inactive: 0.999
16,C[C@@H]1CN([C@H](C)CO)S(=O)(=O)c2ccc(C#C[C@@H](C)O)cc2O[C@H]1CN(C)C(=O)c1ccccc1,inactive: 0.996
17,COC(=O)C[C@@H]1CC[C@H]2[C@@H](COC[C@H](O)CN2S(=O)(=O)c2cn(C)cn2)O1,inactive: 0.998
18,C[C@H]1CN([C@@H](C)CO)C(=O)c2cccc(NC(=O)Nc3ccc4c(c3)OCO4)c2O[C@H]1CN(C)S(=O)(=O)c1cn(C)cn1,inactive: 1.02
19,COc1cccc(C#Cc2ccc([C@H]3[C@H]4CN(S(=O)(=O)c5ccccc5C)CC(=O)N4[C@H]3CO)cc2)c1,inactive: 1.03

row,Compound,relative growth
1,Cc1cc(C)n([C@@H](CC(=O)O)C(=O)O)n1,inactive: 0.97
2,C[C@@H]1CN([C@H](C)CO)C(=O)c2cccc(NC(=O)Nc3ccc(C(F)(F)F)cc3)c2O[C@@H]1CN(C)C(=O)Nc1ccc2c(c1)OCO2,inactive: 0.922
3,COCCOC(=O)N1C(=O)[C@@]2(c3ccccc31)[C@H](C(=O)Nc1nc3ccccc3s1)[C@H]1C(=O)O[C@H](c3ccccc3)[C@H](c3ccccc3)N1[C@@H]2c1ccc(OCCO)cc1,inactive: 1.05
4,C[C@@H]1CCCCO[C@H](CN(C)C(=O)C2CCCCC2)[C@H](C)CN([C@@H](C)CO)C(=O)c2cc(NC(=O)c3ccncc3)ccc2O1,inactive: 1.02
5,C[C@@H]1CN([C@H](C)CO)S(=O)(=O)c2ccc(C#CC(C)(C)O)cc2O[C@H]1CN(C)Cc1ccc(F)cc1,inactive: 0.997
6,C[C@@H]1CN([C@H](C)CO)C(=O)Cc2cc(NC(=O)Nc3ccc(C(F)(F)F)cc3)ccc2O[C@H]1CN(C)C(=O)Nc1ccc(C(F)(F)F)cc1,inactive: 0.994
7,CC(C)CC#Cc1ccc2c(c1)O[C@H](CN(C)S(=O)(=O)c1cccc(F)c1)[C@@H](C)CN([C@@H](C)CO)S2(=O)=O,inactive: 1.04
8,C=CCOC(=O)[C@H]1[C@@H]2C(=O)O[C@@H](c3ccccc3)[C@@H](c3ccccc3)N2[C@@H](c2ccc(OCCOC(=O)[C@@H]3C[C@@H]4C(=O)N[C@@H](CCCC[N+](C)(C)C)C(=O)N4[C@@H]3c3cccc(OCCO)c3)cc2)[C@]12C(=O)Nc1ccc(I)cc12,inactive: 1.03
9,C[C@@H]1CCCCO[C@@H](CN(C)C(=O)c2ccncc2)[C@@H](C)CN([C@H](C)CO)C(=O)c2cc(NS(=O)(=O)c3cn(C)cn3)ccc2O1,inactive: 0.985
10,C[C@H](CO)N1C[C@H](C)[C@@H](CN(C)Cc2ccc(C(=O)Nc3ccccc3N)cc2)Oc2ccc(NC(=O)NC3CCCCC3)cc2CC1=O,inactive: 0.989
11,C[C@@H]1CN([C@@H](C)CO)C(=O)c2cc(NC(=O)C3CCCCC3)ccc2O[C@@H]1CN(C)Cc1ccc(C(F)(F)F)cc1,inactive: 1.02
12,C[C@@H]1CN([C@H](C)CO)C(=O)c2cc(Br)cnc2O[C@H]1CN(C)Cc1ccc2c(c1)OCO2,inactive: 0.997
13,CC(C)(N)c1cn(C2CCN(C(=O)C3CCC(C(C)(C)C)CC3)CC2)nn1 (stereo unspecified),inactive: 0.988
14,C[C@H]1CCCCO[C@@H](CN(C)CC2CCCCC2)[C@@H](C)CN([C@@H](C)CO)C(=O)c2cc(NC(=O)Nc3ccccc3)ccc2O1,inactive: 0.977
15,C[C@H](CO)N1C[C@H](C)[C@H](CN(C)Cc2ccc3c(c2)OCO3)Oc2ccc(NC(=O)Nc3ccc(C(F)(F)F)cc3)cc2CC1=O,inactive: 0.946
16,Cc1ccc(S(=O)(=O)N(C)C[C@@H]2OCCCC[C@H](C)Oc3ccc(NC(=O)Nc4ccc5c(c4)OCO5)cc3C(=O)N([C@H](C)CO)C[C@@H]2C)cc1,inactive: 0.993
17,COc1ccc(S(=O)(=O)N(C)C[C@@H]2Oc3ccc(NS(C)(=O)=O)cc3C(=O)N([C@H](C)CO)C[C@H]2C)cc1,inactive: 0.991
18,C[C@@H]1CCCCO[C@@H](CN(C)C(=O)Nc2ccc3c(c2)OCO3)[C@@H](C)CN([C@H](C)CO)C(=O)c2cc(NC(=O)C3CCCCC3)ccc2O1,inactive: 0.984
